# According to the supplement of paper PMC9135407:
# Counter-ions that a name gives are not always drawn. Out of some 5,800 compounds screened, about 620 (11%) showed activity.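 Rule for the calls: active = score above a cut-off or among the top three wells of a plate; in these data no inactive exceeds 0.85.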 This is a selection; strong and weak results do not stand in their true shares.
# Tested on: primary human hepatic stellate cells (donor 1)
# Assay: scaled lipid accumulation score (0 = DMSO-like, 1 = nortriptyline-like); higher = stronger HSC inactivation (lipid re-accumulation), active = hit call of the paper
# Conditions: 48 h
# [1] = library stock concentration: 10 mM
# [2] = library stock concentration: 3.33 mM
compound,measurement,setting,value
"CN1CC[C@@]2(C)c3cc(O)ccc3N(C)C12 (single isomer, unassigned; (-)) [(-)-Eseroline fumarate]",scaled lipid accumulation score,[1],inactive: 0.246
"Cc1cc(C)cc(C(=O)OC2C[C@H]3CC[C@@H](C2)N3C)c1 (stereo not given in full) [Tropanyl-3,5-dimethylbenzoate]",scaled lipid accumulation score,[1],inactive: 0.57
Oc1ccc2c3c1O[C@H]1c4[nH]c5ccccc5c4C[C@@]4(O)[C@@H](C2)N(CC2CC2)CC[C@]314 [Naltrindole],scaled lipid accumulation score,[1],inactive: 0.713
Oc1ccc2c3c1O[C@H]1c4[nH]c5ccccc5c4C[C@@]4(O)[C@@H](C2)N(CC2CC2)CC[C@]314 [Naltrindole HCl],scaled lipid accumulation score,library stock concentration: 4.8 mM,inactive: 0.264
CN(C)[C@@H]1C(=O)C(C(N)=O)=C(O)[C@@]2(O)C(=O)C3=C(O)c4c(O)cccc4[C@@](C)(O)[C@H]3C[C@@H]12 [Tetracycline HCl],scaled lipid accumulation score,[2],inactive: ≤ 0
same,scaled lipid accumulation score,[1],inactive: ≤ 0
CC(NC(C)(C)C)C(=O)c1cccc(Cl)c1 (stereo not given),scaled lipid accumulation score,[1],inactive: 0.09
CC(NC(C)(C)C)C(=O)c1cccc(Cl)c1 (stereo not given) [Amfebutamone],scaled lipid accumulation score,library stock concentration: 8.3 mM,inactive: ≤ -0.006
CC(NC(C)(C)C)C(=O)c1cccc(Cl)c1 (stereo not given) [Bupropion hydrochloride],scaled lipid accumulation score,,inactive: ≤ 0
same,scaled lipid accumulation score,[1],inactive: ≤ 0
CC(NC(C)(C)C)C(=O)c1cccc(Cl)c1 (stereo not given) [Bupropion],scaled lipid accumulation score,library stock concentration: 7.2 mM,inactive: 0.39
same,scaled lipid accumulation score,[1],inactive: 0.07
CC(NC(C)(C)C)C(=O)c1cccc(Cl)c1 (stereo not given) [Amfebutamone HCl],scaled lipid accumulation score,[2],inactive: 0.025
same,scaled lipid accumulation score,[1],inactive: ≤ 0
C=C/C=C\CC1=C(C)[C@@H](OC(=O)[C@@H]2[C@@H](/C=C(\C)C(=O)OC)C2(C)C)CC1=O.C=C/C=C\CC1=C(C)[C@@H](OC(=O)[C@@H]2[C@@H](C=C(C)C)C2(C)C)CC1=O,scaled lipid accumulation score,[1],inactive: ≤ 0
NCc1cccnc1,scaled lipid accumulation score,[1],inactive: 0.039
NC(CP(=O)(O)O)C(=O)O (stereo not given),scaled lipid accumulation score,[1],inactive: 0.082
CN[C@@H]1[C@@H](O)[C@@H](O[C@@H]2[C@@H](O)[C@H](O[C@H]3O[C@H](CN)CC[C@H]3N)[C@@H](N)C[C@H]2N)OC[C@]1(C)O.CN[C@@H]1[C@@H](O)[C@@H](O[C@@H]2[C@@H](O)[C@H](O[C@H]3O[C@H]([C@@H](C)N)CC[C@H]3N)[C@@H](N)C[C@H]2N)OC[C@]1(C)O.CN[C@@H]1[C@@H](O)[C@@H](O[C@@H]2[C@@H](O)[C@H](O[C@H]3O[C@H]([C@@H](C)NC)CC[C@H]3N)[C@@H](N)C[C@H]2N)OC[C@]1(C)O [Gentamicine sulfate],scaled lipid accumulation score,,inactive: ≤ 0
CN[C@@H]1[C@@H](O)[C@@H](O[C@@H]2[C@@H](O)[C@H](O[C@H]3O[C@H](CN)CC[C@H]3N)[C@@H](N)C[C@H]2N)OC[C@]1(C)O.CN[C@@H]1[C@@H](O)[C@@H](O[C@@H]2[C@@H](O)[C@H](O[C@H]3O[C@H]([C@@H](C)N)CC[C@H]3N)[C@@H](N)C[C@H]2N)OC[C@]1(C)O.CN[C@@H]1[C@@H](O)[C@@H](O[C@@H]2[C@@H](O)[C@H](O[C@H]3O[C@H]([C@@H](C)NC)CC[C@H]3N)[C@@H](N)C[C@H]2N)OC[C@]1(C)O [Gentamicin sulfate],scaled lipid accumulation score,library stock concentration: 3.5 mM,inactive: ≤ -0.001
same,scaled lipid accumulation score,[1],inactive: 0.022
